Hit rate of the full screen: of about 310,000 compounds, about 11,000 (3.5%) were called active. Inconclusive means that the source gave no clear call. Such entries were picked first, then a sample of the others. The call rests on the fitted dose curve; in most records, active means well fitted inhibition curve with a large enough effect; inconclusive means small, poorly fitted or top-dose-only effect, or effect the other way; inactive means flat fitted curve, though single readings scatter. No potency is given beside an inconclusive call; the fits are too rough.
Assay: VP16 counterscreen qHTS for inhibitors of ROR gamma transcriptional activity;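 further: Gal4-VP16 expression switched on by copper sulfate through the metallothionein promoter; nearly all actives have a fitted effect of over 50% in size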
Conditions: Drosophila S2 Gal4-VP16 UAS-luciferase, luminescence, 20 h; series mostly up to 53.6 µM
Potency means the concentration at half of the fitted maximal effect; tags describe the fitted curve by direction and shape.

SMILES	Potency
Cc1ccc(NC(=O)CN(C)CC(=O)Nc2cccc(F)c2)cc1[N+](=O)[O-]	active: 4.47 µM
O=C(c1cc(F)ccc1F)C1CCCN(Cc2cccc(Cl)c2)C1 (stereo unspecified)	inactive
CC(=O)OC[C@]12CCC(C)=C[C@H]1O[C@@H]1[C@H](O)[C@@H](OC(C)=O)[C@@]2(C)[C@]12CO2	active: 0.0016 µM
CCCCCn1c(=O)c(C(=O)NCCc2ccccc2)c(O)c2ccccc21	inconclusive [inhibitor, partial curve]
c1ccc(-c2nc(N3CCOCC3)s[n+]2-c2ccccc2)cc1	inactive
CC[C@@H](CO)NC(=O)[C@@H]1C=C2c3cccc4c3c(cn4C)C[C@H]2N(C)C1	inconclusive [inhibitor, single point]
COc1ccccc1N1C(=O)NC(=O)/C(=C/c2ccc([N+](=O)[O-])s2)C1=O	inactive
CN1CCCN(C(=O)COc2ccc(F)cc2F)CC1	inactive
Cc1ccc(/C(CSc2nccn2-c2ncc(C(F)(F)F)cc2Cl)=N\O)cc1	inconclusive [inhibitor, single point]
Cc1[nH]n(-c2ccccc2)c(=O)c1C(c1cccc([N+](=O)[O-])c1O)c1c(C)[nH]n(-c2ccccc2)c1=O	inconclusive [inhibitor, single point]
C/C(=N\NC(=O)c1ccccc1)c1c(O)n(C2CCCCC2)c(=O)[nH]c1=O	active: 20 µM
Cc1cc(C)nc(/N=C/c2c(O)n(C)c(=O)n(C)c2=O)n1	inconclusive [inhibitor, single point]
CC12CC[C@H]3[C@@H](CCC4(O)C[C@H](O)CCC34/C=N/NC(=O)c3ccccc3O)C1(O)CCC2C1=CC(=O)OC1 (stereo partly specified)	inactive
COc1c(C)cc(C(=O)C2CCCN(Cc3ccccn3)C2)cc1C (stereo unspecified)	active: 10 µM
c1ccc(-c2ccccc2)cc1	inactive
COC(=O)CN1C(=O)CN=C(c2ccccc2Cl)c2cc(Br)ccc21	inactive
CC12CC[C@H]3[C@@H](CCC4(O)C[C@H](O)CCC34/C=N/NC(=O)c3ccc(O)cc3)C1(O)CCC2C1=CC(=O)OC1 (stereo partly specified)	active: 10 µM
CCC(C)n1c(=O)[nH]c(C)c(Br)c1=O (stereo unspecified)	inactive
Cn1c(O)c(C2=NN(C(=O)CCl)C(c3ccccc3)C2)c(=O)n(C)c1=O (stereo unspecified)	active: 17.8 µM
N#Cc1c(Cl)c(Cl)c(Cl)c(C#N)c1Cl	active: 1.78 µM
CC(C)C(O)(C(=O)OC[C@@H]1CC[N+]2([O-])CCCC12)C(C)O (stereo partly specified)	inactive
CC(C)Oc1cc(-n2nc(C(C)(C)C)oc2=O)c(Cl)cc1Cl	inconclusive [inhibitor, single point]
COc1ccc(-n2c(O)c(/C(C)=N/N3CCCCCC3)c(=O)[nH]c2=O)cc1	inactive
COC(=O)[C@@]1(O)C[C@@H]2O[C@@]1(C)n1c3ccccc3c3c4c(c5c6ccccc6n2c5c31)C(=O)NC4	inconclusive [inhibitor, single point]

SMILES	Potency
Cc1nc2ccc(N3CCN(C)CC3)cc2nc1C	inconclusive [inhibitor, single point]
O=C(Nc1ncc(Cc2ccccc2)s1)C1=NCCN1	inconclusive [inhibitor, single point]
C/C=C(/C)C(=O)O[C@H]1C(C)=C2[C@H]([C@@H]1OC(=O)CCCCCCC)[C@@](C)(OC(C)=O)C[C@H](OC(=O)CCC)[C@@]1(O)[C@H]2OC(=O)[C@@]1(C)O	inconclusive [inhibitor, partial curve, poor fit]
COc1ccc(CC2(CCc3ccncc3)C(=O)NC(=O)NC2=O)c(OC)c1	inactive
Cc1c(C(c2ccc(O)cc2)c2c(O)c3ccccc3oc2=O)c(=O)n(-c2ccccc2)n1C (stereo unspecified)	inactive
CN(C(=O)Oc1ccc(Cl)c2cccnc12)c1ccccc1	inactive
CCCCOCCCn1c(N)c(C(=O)OC(C)COC)c2nc3ccccc3nc21 (stereo unspecified)	inconclusive [inhibitor, single point]
CC(=O)O[C@@]12CO[C@@H]1C[C@H](O)[C@@]1(C)C(=O)[C@H](O)C3=C(C)[C@@H](OC(=O)[C@H](O)[C@@H](NC(=O)c4ccccc4)c4ccccc4)C[C@@](O)([C@@H](OC(=O)c4ccccc4)C12)C3(C)C (stereo partly specified)	inconclusive [inhibitor, partial curve]
O=C(/C=C/c1cccc(F)c1)NC1CC1	inconclusive [activator, single point]
Cc1ccc(-c2nc3ccccc3c(=O)n2-c2ncccc2C)cc1	inactive
CCC(C(=O)O)C1CCC(C)C(C(C)C(O)C(C)C(=O)C(CC)C2OC3(C=CC(O)[C@@]4(CC[C@](C)(C5CC[C@@](O)(CC)C(C)O5)O4)O3)C(C)CC2C)O1 (stereo partly specified)	active: 2.24 µM
C/C(=C\C=C/[C@@H](C)C(=O)O)[C@H]1CN[C@H](C(=O)O)[C@@H]1CC(=O)O	inactive
COc1ccc2c(c1OC)C(=O)O[C@H]2[C@H]1c2cc3c(cc2CCN1C)OCO3	inactive
CN(C)c1ccc(/C=C2\CCCN=C2c2cccnc2)cc1	inactive
OC[C@@H](O)[C@H]1O[C@@H]2OC(C(Cl)(Cl)Cl)O[C@H]2[C@H]1O (stereo partly specified)	inactive
C[C@@H]1C[C@@H]([C@H](O)CC2CC(=O)NC(=O)C2)C(=O)[C@@H](C)C1	active: 0.0089 µM
CCc1n[nH]c(=S)n1/N=C/c1c(C)nn(-c2ccccc2)c1Cl	inconclusive [inhibitor, single point]
CCCCN1C(=O)NC(=O)C2(Cc3c(nc4c(C)cccn4c3=O)N3CCc4ccccc4C32)C1=O (stereo unspecified)	inconclusive [inhibitor, single point]
N#CC(C#N)=Cc1cc(O)c(O)c([N+](=O)[O-])c1	active: 22.4 µM
COc1ccc(C2NCc3ccc4c(c3-n3cccc32)OCO4)cc1O (stereo unspecified)	inconclusive [inhibitor, partial curve]
Cc1cc(C(C#N)c2ccc(Cl)cc2)c(Cl)cc1NC(=O)c1cc(I)cc(I)c1O (stereo unspecified)	inconclusive [inhibitor, single point]
CCn1nc(-c2ccccc2)nc2c(=O)n(C)c(=O)nc1-2	active: 1.26 µM
CCOC(=O)C1(CCc2ccccc2)CCN(Cc2cccc3cnccc23)CC1	inconclusive [inhibitor, single point]
CCc1ccc(OCCCN=C(C)c2c(O)n(C)c(=O)n(C)c2=O)cc1	inconclusive [inhibitor, single point]

SMILES	Potency
Cc1cc(OC(=O)CCNC(=O)OC(C)(C)C)c2c3c(c(=O)oc2c1)CCC3	inconclusive [inhibitor, single point]
Cn1ccc(NC(=O)CCl)n1	active: 4.47 µM
Cc1nn(Cc2ccc(Cl)cc2Cl)c(Cl)c1C(=O)Nc1ccc(OC(F)F)cc1	inconclusive [inhibitor, single point]
COc1ccc(C(=O)CC2(CC(=O)c3ccc(OC)cc3)C(=O)N(C)C(=O)N(C)C2=O)cc1	inconclusive [inhibitor, single point]
C(=NC1CCCCC1)=NC1CCCCC1	active: 2.24 µM
CCOC(=O)c1c(C)n(COCCO)c2ccc(O)cc12	inactive
CN(C)c1nc(N(C)C)nc(N(C#N)CCCl)n1	inconclusive [inhibitor, single point]
O=C1C(Cl)=C(N2CCOCC2)C(=O)N1c1ccccc1F	inconclusive [inhibitor, single point]
CCCCC/C=C\C/C=C\C/C=C\C/C=C\CCCC(=O)OCCN	inconclusive [inhibitor, single point]
C[C@]12O[C@H](C[C@]1(O)CO)n1c3ccccc3c3c4c(c5c6ccccc6n2c5c31)CNC4=O	active: 5.62 µM
COc1cc(C)cc(CN2CC=C(c3ccccc3)CC2)c1O	inconclusive [inhibitor, single point]
O=C(O)CBr	inactive
CN(C)c1ccc(/C=C2\C(=O)NC(=O)N(CCc3ccc(F)cc3)C2=O)cc1	inactive
COCCCNC(=O)Cn1cc(/C=C2\C(=O)NC(=O)N(c3ccccc3F)C2=O)c2ccccc21	inconclusive [inhibitor, single point]
CN(C)c1ccc(/C=C/[N+](=O)[O-])cc1	active: 12.6 µM
CCCCN1CCC(O)(c2ccccc2)C(C(=O)c2ccccc2)C1 (stereo unspecified)	inconclusive [inhibitor, single point]
C=CCn1c(O)c(C(CC)=NCc2ccco2)c(=O)[nH]c1=O	inactive
Clc1ccc2nc3c(c(-c4ccccc4)c2c1)CNCC3	inconclusive [activator, single point]
Cn1c(O)c(C(=O)c2ccccc2Cl)c(=O)n(C)c1=O	inconclusive [inhibitor, partial curve]
CCCCCn1c(=O)c(C(=O)NCc2ccncc2)c(O)c2ccccc21	active: 4.47 µM
COP(=O)(OC)O/C(=C\Cl)c1cc(Cl)c(Cl)cc1Cl	inconclusive [activator, single point]
C=CCc1cc(OC)c2c(c1OC)OCO2	inconclusive [inhibitor, partial curve]
CC(=O)O[C@@]12CO[C@@H]1C[C@@H](O)[C@@]1(C)C(=O)[C@H](O)C3=C(C)[C@@H](OC(=O)[C@H](O)[C@@H](NC(=O)c4ccccc4)c4ccccc4)C[C@@](O)([C@@H](OC(=O)c4ccccc4)C12)C3(C)C (stereo partly specified)	inconclusive [inhibitor, partial curve]
